{"source": "PubChem BioAssay AID504832", "about": "(National Center for Advancing Translational Sciences (NCATS), 2011)", "note": "The campaign covered roughly 310,000 compounds. About 18,000 (5.8%) were called active. The shares of active, inactive and inconclusive entries below differ from those in the screen. Calls follow the shape of the dose curve; as a rule, active = well fitted inhibition curve with a large enough effect; inconclusive = small, poorly fitted or top-dose-only effect, or another doubt; inactive = no such curve, though single readings can be large or run the other way. No potency is given beside an inconclusive call; the fits are too rough. % is scaled to controls: 0 for no effect and ±100 for the full control effect; potency is read from the fitted curve at half-maximal effect; tags tell the direction and shape of the fitted curve."}
{"test": "Primary qHTS for delayed death inhibitors of the malarial parasite plastid, 48 hour incubation", "conditions": "P. falciparum luciferase growth in erythrocytes; series mostly up to 28.7 µM; activity change, negative = inhibition: at the top concentration", "in_short": "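Luciferase-expressing P. falciparum in infected erythrocytes (2% hematocrit, 0.1% parasitemia final) in RPMI 1640/0.5% Albumax were exposed to compound for 48 hours at 37 C, 5% CO2; growth read as luminescence.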"}
{"smiles": "COc1ccc2ccccc2c1C(O)c1nccn1C", "note": "(stereo unspecified)", "Potency": "inconclusive [inhibitor, single point]"}
{"smiles": "Cc1ccc(Nc2nc(-c3cccnc3)cs2)cc1C", "activity change, negative = inhibition": "inactive: -32.9%"}
{"smiles": "Cc1ccccc1N1CC(O)(c2cccs2)[N+]2=C1CCCC2", "note": "(stereo unspecified)", "Potency": "inconclusive [inhibitor, partial curve, poor fit]"}
{"smiles": "Cc1cccc(-n2cc(CN3CCN(c4ccccn4)CC3)c(-c3cccc(F)c3)n2)c1", "Potency": "inconclusive [inhibitor, single point]"}
{"smiles": "CCC(C)(C)n1nnnc1C(c1ccc(C)cc1)N1CCN(C(=O)c2ccco2)CC1", "note": "(stereo unspecified)", "Potency": "inconclusive [inhibitor, partial curve]"}
{"smiles": "Cc1nc(CN2CCN(Cc3nc(C(c4ccccc4)c4ccccc4)no3)CC2)cs1", "Potency": "inconclusive [inhibitor, partial curve, poor fit]"}
{"smiles": "CCOc1cccc(CN2CCCC(C(=O)c3cccc(C(F)(F)F)c3)C2)c1O", "note": "(stereo unspecified)", "Potency": "inconclusive [inhibitor, full curve]"}
{"smiles": "CC(C)(C)NC(=O)NC(=O)CSc1ccc(S(=O)(=O)N2CCOCC2)cn1", "activity change, negative = inhibition": "inactive: -3.25%"}
{"smiles": "CCN1C=CC2=C(C#N)C(N)C(C#N)(C#N)C(c3ccccc3C(F)(F)F)C2C1", "note": "(stereo unspecified)", "Potency": "active: 2.94 µM"}
{"smiles": "O=C1CC(N(O)C2CC(=O)N(Cc3ccccc3)C2=O)C(=O)N1Cc1ccccc1", "note": "(stereo unspecified)", "Potency": "inconclusive [inhibitor, single point]"}
{"smiles": "COc1ccc(-n2nc(C(=O)NCC(=O)N3CC(C)CC(C)C3)c3ccccc3c2=O)cc1", "note": "(stereo unspecified)", "Potency": "inconclusive [inhibitor, single point]"}
{"smiles": "CN(C)c1ccc(/C=C2\\C(=N)N3N=C(CC(=O)N4CCCCC4)SC3=NC2=O)cc1", "activity change, negative = inhibition": "inactive: 0.377%"}
{"smiles": "CCc1nnc(NC(=O)CSc2nnc(-c3ccc(S(=O)(=O)N4CCCC4)cc3)n2CC)s1", "Potency": "inconclusive [inhibitor, single point]"}
{"smiles": "O=C(CN1CCN(C/C=C/c2ccccc2)CC1)Nc1cc([N+](=O)[O-])ccc1Cl", "Potency": "inconclusive [inhibitor, single point]"}
{"smiles": "COc1ccc2c(c1)CCc1c(C(=O)NCCCn3ccnc3)noc1-2", "Potency": "inconclusive [inhibitor, partial curve, poor fit]"}
{"smiles": "CCN(CC)C(=O)c1oc2ccc(S(=O)(=O)N3CCCCCC3)cc2c1C", "Potency": "inconclusive [inhibitor, single point]"}
{"smiles": "Cc1cc(N/N=C/c2ccccc2Br)nc2ccccc12", "Potency": "inconclusive [inhibitor, single point]"}
{"smiles": "Cc1nc([N+](=O)[O-])c(Br)n1Cc1ccccc1", "Potency": "inconclusive [inhibitor, single point]"}
{"smiles": "Cc1ccc(SCCNC(=O)/C=C/c2cccc([N+](=O)[O-])c2)cc1", "activity change, negative = inhibition": "inactive: 20.6%"}
{"smiles": "CCCCCC1CCC(C(=O)NCCN2CCOCC2)CC1", "note": "(stereo unspecified)", "activity change, negative = inhibition": "inactive: -10.1%"}
{"smiles": "CNC(=S)N=Nc1c(O)[nH]c2ccc(C(C)C)cc12", "Potency": "inconclusive [inhibitor, single point]"}
{"smiles": "Fc1ccc(CNn2cnnc2SCc2ccc(F)cc2)cc1", "Potency": "inconclusive [inhibitor, single point]"}
{"smiles": "Cc1ccc(C(=O)CSc2nnc(COc3cccc4cccnc34)o2)cc1", "Potency": "inconclusive [inhibitor, single point]"}
{"smiles": "CN1CCN(C2=C(Cl)C(=O)N(c3ccc(Cl)cc3)C2=O)CC1", "Potency": "inconclusive [inhibitor, single point]"}
{"smiles": "C/C(=N\\NC(=O)c1ccco1)c1ccc(-c2ccccc2)cc1", "Potency": "inconclusive [inhibitor, single point]"}
{"smiles": "CCC(C)(C)n1nnnc1CN1CCN(C(c2ccccc2)c2ccccc2)CC1", "Potency": "active: 7.38 µM"}
{"smiles": "CCOc1cccc(OCC)c2c(C)[n+](CC3CCCO3)c(C)c1-2", "note": "(stereo unspecified)", "Potency": "inconclusive [inhibitor, partial curve]"}
{"smiles": "O=C(Cn1nc(Cc2cccnc2)c2ccccc2c1=O)Nc1cccnc1Cl", "Potency": "inconclusive [inhibitor, full curve]"}
{"smiles": "COc1cccc(-c2csc(N3CCN(CC(=O)NNC(=O)c4ccc(Br)cc4)CC3)n2)c1", "Potency": "inconclusive [inhibitor, partial curve]"}
{"smiles": "COc1ccc2nc(NC(=O)CN(c3ccc(C)cc3)S(=O)(=O)c3c(C)nn(C)c3C)sc2c1", "Potency": "active: 11.7 µM"}
{"smiles": "O=C(Nc1ccccc1-c1ccccc1)c1ccc(NC(=O)c2ccco2)cc1", "Potency": "active: 11.7 µM"}
{"smiles": "c1ccc2c(c1)OCC(C1=NCCN1)O2", "note": "(stereo unspecified)", "Potency": "inconclusive [inhibitor, partial curve, poor fit]"}
{"smiles": "O=C(O)CCc1nn2c3ccccc3n(Cc3ccccc3F)c2nc1=O", "activity change, negative = inhibition": "inactive: 8.57%"}
{"smiles": "COc1ccc(C(=O)N/N=C(\\C)CC(=O)Nc2ccc3ccccc3c2)c(OC)c1", "Potency": "inconclusive [inhibitor, single point]"}
{"smiles": "Cn1nnc(NC(=S)NC(=O)c2cccc3ccccc23)n1", "Potency": "inconclusive [inhibitor, partial curve, poor fit]"}
{"smiles": "CC(C)[C@@]1(c2ccccc2)ON(c2ccccc2C(F)(F)F)C1=O", "Potency": "active: 1.65 µM"}
{"smiles": "CC(C)OC(=O)C1C(=O)CC(C)(O)C(C(=O)OC(C)C)C1c1ccccc1", "note": "(stereo unspecified)", "Potency": "inconclusive [inhibitor, full curve, poor fit]"}
{"smiles": "CCN1CCN(C(=O)c2ccc(CNS(=O)(=O)c3cccc(OC)c3)cc2)CC1", "activity change, negative = inhibition": "inactive: 13.6%"}
{"smiles": "OCCN1CCN(c2ncnc3scc(-c4ccc(F)cc4)c23)CC1", "activity change, negative = inhibition": "inactive: -10.1%"}
{"smiles": "Cc1ccc(C2C(C(=O)O)c3ccccc3C(=O)N2C)o1", "note": "(stereo unspecified)", "activity change, negative = inhibition": "inactive: 15%"}
{"smiles": "O=C(Nc1ccc(N2CCOCC2)cc1)c1cc(-c2ccncc2)nc2ccccc12", "Potency": "inconclusive [inhibitor, partial curve, poor fit]"}
{"smiles": "CCCn1c(Nc2ccccc2C)nc2ccccc21", "Potency": "inconclusive [inhibitor, single point]"}
{"smiles": "Cc1ccc(-c2csc3ncnc(Sc4nnc(CN5CCCCCC5=O)o4)c23)cc1", "Potency": "active: 11.7 µM"}
{"smiles": "CCS(=O)c1ccccc1C(=O)OC(C)C(=O)Nc1ccc(S(=O)(=O)N2CCCC2)cc1", "note": "(stereo unspecified)", "Potency": "inconclusive [inhibitor, partial curve, poor fit]"}
{"smiles": "O=C(c1ccc2c(c1)OCCO2)N1CCN(c2ccc([N+](=O)[O-])cc2)CC1", "Potency": "inconclusive [inhibitor, single point]"}
{"smiles": "O=[N+]([O-])c1ccc(NC2CCN(Cc3ccccc3)CC2)c([N+](=O)[O-])c1", "Potency": "inconclusive [inhibitor, partial curve]"}
{"smiles": "Nc1nc(-c2ccc(Br)s2)c(Br)s1", "activity change, negative = inhibition": "inactive: 14.4%"}
{"smiles": "CCn1cnc2c1c(=O)n(CC(=O)NCc1ccccc1)c(=O)n2Cc1ccccc1", "Potency": "inconclusive [inhibitor, partial curve]"}
{"smiles": "CCc1nnc(NC(=O)c2ccc(OC)c(S(=O)(=O)N3CCCC3)c2)s1", "Potency": "inconclusive [inhibitor, partial curve, poor fit]"}
{"smiles": "CC(C)(C)n1ncc2c(=O)n(Cc3c(F)cccc3Cl)cnc21", "Potency": "inconclusive [inhibitor, single point]"}
{"smiles": "O=C(CC1C(=O)NCCN1C(=O)Nc1ccc(F)cc1)Nc1ccc(F)cc1", "note": "(stereo unspecified)", "activity change, negative = inhibition": "inactive: 4.21%"}
{"smiles": "COc1ccc(CCNc2ccc(C(CC(N)=O)NC(=O)c3cc(OC)ccc3OC)cc2[N+](=O)[O-])cc1", "note": "(stereo unspecified)", "Potency": "inconclusive [inhibitor, partial curve, poor fit]"}
{"smiles": "CCOc1ccc(OCC)c(NC(=O)C2CCN(S(=O)(=O)c3ccc4c(c3)CC(C)N4C(C)=O)CC2)c1", "note": "(stereo unspecified)", "Potency": "inconclusive [inhibitor, partial curve]"}
{"smiles": "COc1cccc(/C(O)=C2/C(=O)C(=O)N(CCCN(C)C)C2c2cccc(Cl)c2)c1", "note": "(stereo unspecified)", "activity change, negative = inhibition": "inactive: 13%"}
{"smiles": "COc1ccc(OC)c(CNC(=O)CCC(=O)N2Cc3cccc(OC)c3Oc3ncccc32)c1", "activity change, negative = inhibition": "inactive: -24.8%"}
{"smiles": "Cc1ccc(-n2c(SCC(N)=O)nnc2-c2ccc(S(=O)(=O)N3CCCCC3)cc2)c(C)c1", "activity change, negative = inhibition": "inactive: -25.5%"}
{"smiles": "O=C(c1cccc(Cl)c1)N1CCC(C(=O)N2CCN(Cc3ccccc3)CC2)CC1", "Potency": "inconclusive [inhibitor, partial curve, poor fit]"}
{"smiles": "COc1ccc(OC)c(S(=O)(=O)n2ccc(C)n2)c1", "activity change, negative = inhibition": "inactive: -13.8%"}
{"smiles": "O=C(Nc1cnn(Cc2ccc(F)cc2)c1)c1cnn2c(C(F)F)cc(-c3ccccc3)nc12", "Potency": "inconclusive [inhibitor, partial curve]"}
{"smiles": "Cc1nc2sccn2c(=O)c1S(=O)(=O)N1CCN(c2cccc(C(F)(F)F)c2)CC1", "Potency": "inconclusive [inhibitor, full curve, poor fit]"}
{"smiles": "COc1ccccc1NC(=O)Nc1nc(CC(=O)Nc2ccc(F)c(F)c2)cs1", "Potency": "inconclusive [inhibitor, single point]"}
{"smiles": "O=C(CN(c1cccc([N+](=O)[O-])c1)S(=O)(=O)c1ccccc1)N(Cc1ccccc1)Cc1ccccc1", "Potency": "inconclusive [inhibitor, single point]"}
{"smiles": "COc1cccc(NC(=O)CN2C(=O)NC(C)(CC(C)C)C2=O)c1", "note": "(stereo unspecified)", "activity change, negative = inhibition": "inactive: -29.2%"}
{"smiles": "Cc1ccc(C2CC(C(F)F)n3ncc(C(=O)Nc4c(C)nn(Cc5c(F)cccc5Cl)c4C)c3N2)cc1", "note": "(stereo unspecified)", "Potency": "inconclusive [inhibitor, single point]"}
{"smiles": "Nc1ccc2nc3c(=O)n(C4CCCCC4)c(=O)[nH]c3nc2c1", "activity change, negative = inhibition": "inactive: -7.7%"}
{"smiles": "CC(=O)NCCCc1nc2ccccc2n1Cc1ccc(C)cc1", "Potency": "inconclusive [inhibitor, single point]"}
